Measured values taken from the supplement of paper PMC8728848.
Some of the results follow.

Experiments:
Test in all cases: glycan array binding signal (z-score within array); higher = stronger binding
Settings in all cases: glycan notation: IUPAC condensed, linker removed
[1] = biological target: Gal(b1-4)GlcNAc
Method in brief: (§1)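 Arrays were curated from the Consortium for Functional Glycomics database, 3228 in total, and kept only where the protein sequence was available. Binding is expressed as a within-array Z-score. This score was averaged across arrays of the same protein sequence at different concentrations or buffers and across linkers, and negative values can be read as non-binding.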

[2] = biological target: Gal(b1-4)GlcNAc(b1-2)Man(a1-3)[Gal(b1-4)GlcNAc(b1-2)Man(a1-6)]Man(b1-4)GlcNAc(b1-4)GlcNAc
Method in brief: as §1

[3] = biological target: Gal(b1-4)GlcNAc(b1-2)Man(a1-3)[Gal(b1-4)GlcNAc(b1-2)Man(a1-6)]Man(b1-4)GlcNAc(b1-4)[Fuc(a1-6)]GlcNAc
Method in brief: as §1

[4] = biological target: Gal(b1-4)GlcNAc(b1-2)Man(a1-3)[Gal(b1-4)GlcNAc(b1-2)Man(a1-6)][GlcNAc(b1-4)]Man(b1-4)GlcNAc(b1-4)[Fuc(a1-6)]GlcNAc
Method in brief: as §1

[5] = biological target: Gal(b1-4)GlcNAc(b1-2)Man(a1-3)[Man(a1-6)]Man(b1-4)GlcNAc(b1-4)GlcNAc
Method in brief: as §1

[6] = biological target: Gal(b1-4)GlcNAc(b1-2)Man(a1-6)[GlcNAc(b1-2)Man(a1-3)]Man(b1-4)GlcNAc(b1-4)[Fuc(a1-6)]GlcNAc
Method in brief: as §1

[7] = biological target: Gal(b1-4)GlcNAc(b1-2)Man(a1-6)[Man(a1-3)]Man(b1-4)GlcNAc(b1-4)GlcNAc
Method in brief: as §1

[8] = biological target: Gal(b1-4)GlcNAc(b1-2)Man(a1-6)[Man(a1-3)]Man(b1-4)GlcNAc(b1-4)[Fuc(a1-6)]GlcNAc
Method in brief: as §1

[9] = biological target: Gal(b1-4)GlcNAc(b1-2)[Gal(b1-4)GlcNAc(b1-4)]Man(a1-3)[Fuc(a1-3)[Gal(b1-4)]GlcNAc(b1-2)Man(a1-6)]Man(b1-4)GlcNAc(b1-4)GlcNAc
Method in brief: as §1

[10] = biological target: Gal(b1-4)GlcNAc(b1-2)[Gal(b1-4)GlcNAc(b1-4)]Man(a1-3)[Gal(b1-4)GlcNAc(b1-2)Man(a1-6)]Man(b1-4)GlcNAc(b1-4)GlcNAc
Method in brief: as §1

[11] = biological target: Gal(b1-4)GlcNAc(b1-2)[Gal(b1-4)GlcNAc(b1-4)]Man(a1-3)[Gal(b1-4)GlcNAc(b1-2)[Gal(b1-4)GlcNAc(b1-6)]Man(a1-6)]Man(b1-4)GlcNAc(b1-4)GlcNAc
Method in brief: as §1

[12] = biological target: Gal(b1-4)GlcNAc(b1-3)Fuc
Method in brief: as §1

[13] = biological target: Gal(b1-4)GlcNAc(b1-3)Gal(b1-4)Glc
Method in brief: as §1

[14] = biological target: Gal(b1-4)GlcNAc(b1-3)Gal(b1-4)GlcNAc(b1-3)Gal(b1-4)Glc
Method in brief: as §1

[15] = biological target: Gal(b1-4)GlcNAc(b1-3)[Fuc(a1-3)[Gal(b1-4)]GlcNAc(b1-6)]Gal(b1-4)Glc
Method in brief: as §1

[16] = biological target: Gal(b1-4)GlcNAc(b1-3)[Gal(b1-4)GlcNAc(b1-6)]Gal(b1-4)Glc
Method in brief: as §1

[17] = biological target: Gal(b1-4)GlcNAc(b1-3)[Gal(b1-4)GlcNAc(b1-6)]Gal(b1-4)GlcNAc(b1-3)Gal(b1-4)Glc
Method in brief: as §1

[18] = biological target: Gal(b1-4)GlcNAc(b1-3)[Gal(b1-4)GlcNAc(b1-6)]Gal(b1-4)GlcNAc(b1-3)[Gal(b1-4)GlcNAc(b1-6)]Gal(b1-4)GlcNAc(b1-3)Gal(b1-4)Glc
Method in brief: as §1

[19] = biological target: Gal(b1-4)GlcNAc(b1-3)[Gal(b1-4)GlcNAc(b1-6)]Gal(b1-4)GlcNAc(b1-3)[Gal(b1-4)GlcNAc(b1-6)]Gal(b1-4)GlcNAc(b1-3)[Gal(b1-4)GlcNAc(b1-6)]Gal(b1-4)GlcNAc(b1-3)Gal(b1-4)Glc
Method in brief: as §1

[20] = biological target: Gal(b1-4)GlcNAc(b1-3)[Gal(b1-4)GlcNAc(b1-6)]Gal(b1-4)GlcNAc(b1-3)[Gal(b1-4)GlcNAc(b1-6)]Gal(b1-4)GlcNAc(b1-3)[Gal(b1-4)GlcNAc(b1-6)]Gal(b1-4)GlcNAc(b1-3)[Gal(b1-4)GlcNAc(b1-6)]Gal(b1-4)GlcNAc(b1-3)Gal(b1-4)Glc
Method in brief: as §1

[21] = biological target: Gal(b1-6)GalNAc
Method in brief: as §1

[22] = biological target: Gal3S(b1-3)GalNAc(b1-4)Gal3S(b1-4)Glc
Method in brief: as §1

[23] = biological target: Gal3S(b1-3)[Fuc(a1-4)]GlcNAc
Method in brief: as §1

B1: ZG16p (Homo sapiens), O60844 (protein)
chain: ARSSSYSGEYGGGGGKRFSHSGNQLDGPITALRVRVNTYYIVGLQVRYGKVWSDYVGGRNGDLEEIFLHPGESVIQVSGKYKWYLKKLLFVTDKGRYLSFGKDSGTSFNAVPLHPNTVLRFISGRSGSLIDAIGLHWDVYPSSCSRC
glycan array binding signal (z-score) [1]: 0.209
glycan array binding signal (z-score) [2]: -0.355
glycan array binding signal (z-score) [3]: -0.42
glycan array binding signal (z-score) [4]: -0.42
glycan array binding signal (z-score) [5]: -0.273
glycan array binding signal (z-score) [6]: -0.395
glycan array binding signal (z-score) [7]: -0.107
glycan array binding signal (z-score) [8]: -0.092
glycan array binding signal (z-score) [9]: -0.42
glycan array binding signal (z-score) [10]: -0.328
glycan array binding signal (z-score) [11]: -0.42
glycan array binding signal (z-score) [12]: -0.328
glycan array binding signal (z-score) [13]: -0.206
glycan array binding signal (z-score) [14]: -0.328
glycan array binding signal (z-score) [15]: -0.328
glycan array binding signal (z-score) [16]: -0.328
glycan array binding signal (z-score) [17]: -0.328
glycan array binding signal (z-score) [18]: -0.311
glycan array binding signal (z-score) [19]: -0.328
glycan array binding signal (z-score) [20]: -0.328
glycan array binding signal (z-score) [21]: -0.191
glycan array binding signal (z-score) [22]: -0.328
glycan array binding signal (z-score) [23]: -0.328
